Publication PMC4242493
Some of the results follow. The list includes weakly bound sequences.

These sequences were tested against MaxL homodimer (UniProt P61244) (assay: universal protein-binding microarray (PBM)). Conditions: PBS-based mixture, 10 nM His-tagged protein dimer, 2% milk, 200 ng/uL BSA, 50 ng/uL salmon testes DNA, 0.02% TX-100; detection with Alexa 488 anti-His …; high values mean tight binding; most listed sequences are background and not binding sites; double strand, one strand shown.
Sequence of UniProt P61244 (P61244 whole entry): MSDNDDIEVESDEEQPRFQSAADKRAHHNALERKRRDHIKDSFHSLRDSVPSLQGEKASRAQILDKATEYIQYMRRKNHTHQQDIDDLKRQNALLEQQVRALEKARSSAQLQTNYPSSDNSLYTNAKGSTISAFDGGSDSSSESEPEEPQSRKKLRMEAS

Sequence | binding signal (normalized occupancy)
ACTTTGGA | 0.0703
AAGGTCCG | 0.0761
AAAGGTAT | 0.0771
ACTGGCAT | 0.0763
CCAGGAAC | 0.0704
CCAATATC | 0.0803
AAGATTAG | 0.0757
ACAACGCA | 0.0833
ATTGGGCC | 0.0677
TGACGCCA | 0.0771
AAGCCGAT | 0.0668
GATCAATA | 0.0801
ACTCCCTG | 0.071
GGACCTCC | 0.0678
TTCTGAAA | 0.0747
AACTTTCA | 0.0708
CAGTTTTC | 0.0717
CAATGACA | 0.0813
TATTTGCA | 0.0802
CTTAGTCC | 0.0725
ATTTCTAA | 0.0757
AAGGACCA | 0.0704
AAGACGGG | 0.0754
ACTGCGGC | 0.0713
CAATTTTC | 0.0732

Sequence | binding signal (normalized occupancy)
ACAGTCGC | 0.0719
GATCAAGC | 0.0745
AAATATGT | 0.0809
TATATAAA | 0.0828
ATGTAAAC | 0.0776
ACATTGAT | 0.0824
CTGCCGCC | 0.0675
AACGGCTC | 0.0724
CAATCGAA | 0.0732
ATTGGCCA | 0.0751
AAAACACA | 0.077
ACTGCCCA | 0.0813
AACAATCT | 0.0759
CCTACAAA | 0.0728
GTCAGCGA | 0.0751
ACCGTACC | 0.0739
CCAAATCA | 0.0792
AGCGACCA | 0.07
CTGTTCGC | 0.0713
ATAGGTAG | 0.0776
CCCTGTAC | 0.0816
GATCAAAC | 0.0751
GCACGGTA | 0.0784
CTTGGCGA | 0.0734
AAACGAGG | 0.081

Sequence | binding signal (normalized occupancy)
ATTTGATG | 0.0782
AAGAAGGG | 0.081
ATCAATGC | 0.08
CATGTGAA | 0.127
AAGATTTA | 0.075
CCCACCGA | 0.0729
AGATCACA | 0.0817
ACGCAGTA | 0.0714
ACTGAGTC | 0.0721
GAGCATCA | 0.0734
GTCGCCGA | 0.0777
CGCATGTA | 0.105
ATTCAAAC | 0.0775
AAATCATA | 0.0772
ATGAATCA | 0.0807
ACGCGTAC | 0.0805
ACGTACAA | 0.075
CGCTGAAA | 0.0703
CTTATCCC | 0.0759
ATTGAAAG | 0.0771
CATGGTAA | 0.0939
CCTCAAAA | 0.0747
AGGGGTAA | 0.0789
CCCATGTC | 0.0854
AGGGGCCG | 0.0755

Sequence | binding signal (normalized occupancy)
GATGCGGC | 0.0788
AGAGTCAT | 0.0809
AAATCAAC | 0.0734
CAGATGTA | 0.0828
ACATTTAG | 0.0818
AGGATGTG | 0.0831
AGGGTTCC | 0.0694
AACTTAGT | 0.0719
TGCGGCCA | 0.0788
ATAAGGGC | 0.0746
ACTATATA | 0.0884
CTGATCGA | 0.0724
AGTGGTAG | 0.0787
AATAAAGA | 0.0762
CTCGCCCA | 0.0695
CTAGAGTC | 0.0717
AATGTCGA | 0.0807
CACAAGCA | 0.0756
GGCGATCA | 0.0766
CTGTCCAC | 0.0845
GCGACGAA | 0.0665
GGTGGTAC | 0.0783
GGGTGCAC | 0.0786
GATACTCC | 0.0769
CCCCGCGA | 0.076

Sequence | binding signal (normalized occupancy)
GGTCTCAC | 0.077
GCAATTAA | 0.0692
GCAGGCCA | 0.0703
GAGTTCCA | 0.0715
GTTGGGAA | 0.0772
ACTTCGAG | 0.0692
GAGGACAA | 0.074
GGCGCTGA | 0.0707
CCCCCCCG | 0.0865
AGAATTTG | 0.0688
CATTCCGA | 0.0764
CCGGTGAC | 0.0707
GGTTAAGA | 0.0768
CAACGGAA | 0.0746
CGAGAACG | 0.0741
CGTCGCGC | 0.0713
AATTAAGA | 0.076
CGTAGCCA | 0.0736
CCCTTAGG | 0.0675
CCCGTGAG | 0.0759
ATGCTGTA | 0.0898
ACGAACAG | 0.0753
AATGCCTC | 0.0826
ATAACGCC | 0.0792
AAGTTACG | 0.0689

Sequence | binding signal (normalized occupancy)
CCCTCGCG | 0.0809
AACGAGGG | 0.0775
CGACGAGA | 0.0718
CATTTCTC | 0.0744
AGCCTGAC | 0.074
CCTATGCC | 0.0801
AGCACTTG | 0.071
CCGTAGTC | 0.0763
CCCTTCTC | 0.0709
ACTAAGTC | 0.0734
ATAACAAA | 0.0738
CGGAGCCC | 0.0657
ATGACCAC | 0.0824
GCTTTTGA | 0.0743
CCTGCCTC | 0.0718
ACCACCGA | 0.0791
CTTTTGCC | 0.0729
GTCCTATA | 0.0791
ACGGACCG | 0.0664
TACGTATA | 0.0771
AGTTCCGA | 0.0673
GCGTAAAC | 0.0733
AAACCCGT | 0.0773
CCATCGAC | 0.0722
ATGCAGCC | 0.0825

Sequence | binding signal (normalized occupancy)
CGCGATCA | 0.0805
TTAGTAAA | 0.0726
GCCCGCCC | 0.0728
ACTCTTCC | 0.0739
CTAGCGTC | 0.0721
GGGCAAGA | 0.0727
ACTTATGC | 0.0788
ACTCCGAA | 0.0702
CCACGTCA | 0.0906
CTATTACC | 0.0759
ATAACGTC | 0.0773
AGGGCACG | 0.0865
GTGGGCGA | 0.0773
CTGACGAA | 0.072
AGAAGAGC | 0.071
AAGTAAAA | 0.0699
CCGTCGAA | 0.0686
ACTGTAGC | 0.0692
AAGAGGCA | 0.0761
TGGAAAAA | 0.0791
AGAGGTTC | 0.0758
ATCTGAGA | 0.0757
ACAACCGA | 0.0733
CTCATGTC | 0.0928
TGATAAAA | 0.0788

Sequence | binding signal (normalized occupancy)
GCCGTGAA | 0.0733
CAATAATA | 0.0803
ATCATTTA | 0.078
AAAATATG | 0.0812
ATAAGTAA | 0.0793
CGTCAGAA | 0.0764
GGGTCATA | 0.0814
GCGAGTAA | 0.073
ACGGCTCG | 0.069
GGGGCACC | 0.0727
CTTATAAA | 0.0807
AGGAACCG | 0.0686
CAGACTAC | 0.0675
GCGGGTGA | 0.072
AATAGACG | 0.0743
CCGCAAAG | 0.0657
AGGGCAAA | 0.0699
GCTAGGGA | 0.0712
CGTCCATC | 0.0756
CTACTAAA | 0.0745
CGACCGCA | 0.0742
AGTCCCTA | 0.0701
TGGTAGAA | 0.0712
AAGAAGAG | 0.0769
CACGATCG | 0.0793

Sequence | binding signal (normalized occupancy)
CCTATTAG | 0.0744
CCCGCTGC | 0.0756
ATTTGCCC | 0.0735
AGCCTAGC | 0.0688
ACCTCACC | 0.0796
ATGGAAAC | 0.0803
GCCGATAC | 0.0771
GCGACTAC | 0.0718
AGGCAGGA | 0.0745
AAGCCGGC | 0.0687
AAGACTTC | 0.0738
TGACCGCA | 0.0775
ATTTGTAC | 0.0801
GTTGCGTA | 0.0775
CGGATATC | 0.0792
ACACCTGA | 0.0871
AATGACAG | 0.0744
AAACAATC | 0.0716
CGAGTGTA | 0.082
